Laboratory results as given in PubChem BioAssay AID504832 (National Center for Advancing Translational Sciences (NCATS), 2011).
Where “and” joins values, the source holds several entries; their conditions need not be identical. Identical values can stand only once. The campaign covered roughly 310,000 compounds. About 18,000 (5.8%) were called active. The inconclusive results got no clear call from the source; some entries with a clear call stand among them for comparison. The call rests on the fitted dose curve; in most records, active means well fitted inhibition curve with a large enough effect; inconclusive means small, poorly fitted or top-dose-only effect, or another doubt; inactive means no such curve, though single readings can be large or run the other way. Potencies of inconclusive entries are doubtful fits and often do not repeat.

Experiment: Primary qHTS for delayed death inhibitors of the malarial parasite plastid, 48 hour incubation
Conditions: P. falciparum luciferase growth in erythrocytes; series mostly up to 28.7 µM; activity change, negative = inhibition: at the top concentration
Method in brief: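 Luciferase-expressing parasites in RBCs, 2% Hct / 0.1% parasitemia final; RPMI 1640 + 0.5% Albumax; 37 C, 5% CO2, one generation; luminescence read-out, lower signal = inhibition.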
On the % scale 0 is the no-effect control and ±100 the full control effect; potency means the concentration at half of the fitted maximal effect; tags describe the fitted curve by direction and shape.

**Q.** For `COc1ccccc1N1CCN(C(c2cccs2)C(C)NC(=O)C(=O)N2CCOCC2)CC1` (centres undefined), which “activity change, negative = inhibition” value is on record?
**A.** inactive: 7.74%

**Q.** For `O=C(N/N=C/c1cccc2ccccc12)c1cc(C2CC2)[nH]n1`, which “activity change, negative = inhibition” value is on record?
**A.** inactive: -5.24%

**Q.** Which Potency does the source give for `COc1nc(-c2ccccc2)cc(-c2ccc3c(c2)OCO3)c1C#N` here?
**A.** inconclusive: 0.0033 µM [inhibitor, full curve, poor fit]

**Q.** Which Potency does the source give for `CN(C)CC[C@@](O)(c1ccccc1)c1ccccc1Cl` here?
**A.** inconclusive: 15.1 µM [inhibitor, single point]

**Q.** With `O=C(O)c1ccc2c(c1)S(=O)(=O)c1cc(Cl)ccc1C2=O` as the compound, how does the “activity change, negative = inhibition” value read?
**A.** inactive: 65.4%

**Q.** For `CCOc1cc2nc(-c3ccc(OC)c(OC)c3)nc(N3CC(C)OC(C)C3)c2cc1OC` (centres undefined), which Potency is on record?
**A.** inconclusive: 13.1 µM [inhibitor, partial curve, poor fit]

**Q.** With `Cc1ccc(CNC(=O)CSc2nc(N3CCCCC3)nc(N3CCCCC3)n2)cc1` as the compound, how does the Potency read?
**A.** inconclusive: 7.38 µM [inhibitor, single point]

**Q.** With `COc1ccc(C(CCNCc2ccc(N(C)C)cc2)C(C)C)cc1` (centres undefined) as the compound, how does the Potency read?
**A.** active: 9.28 µM

**Q.** For `COc1ccc(C(CNC(=O)CSc2ccc(Br)cc2C)N2CCOCC2)cc1` (centres undefined), which Potency is on record?
**A.** inconclusive: 18.5 µM [inhibitor, single point]

**Q.** Which Potency does the source give for `CC(C)C(NC(=O)CCNC(=O)c1ccccc1Cl)c1nc2ccccc2[nH]1` (centres undefined) here?
**A.** inconclusive: 18.5 µM [inhibitor, single point]

**Q.** Which Potency does the source give for `COc1ccc(/C=N\NC(=O)c2ccccc2)cc1COc1ccccc1` here?
**A.** inconclusive: 9.28 µM [inhibitor, partial curve, poor fit]

**Q.** With `CC(Sc1nncn1-c1ccccc1)C(=O)Nc1cccc([N+](=O)[O-])c1` (centres undefined) as the compound, how does the “activity change, negative = inhibition” value read?
**A.** inactive: 39.2%

**Q.** For `Cc1ccc(C(=O)N2CCC3(CC2)Oc2ccc(Cl)cc2C(=O)C32CC(c3cccnc3)=NO2)s1` (centres undefined), which Potency is on record?
**A.** inconclusive: 13.1 µM [inhibitor, single point]

**Q.** With `COc1ccc2c(c1)c1ncnc(N3CCN(Cc4ccc5c(c4)OCO5)CC3)c1n2C` as the compound, how does the Potency read?
**A.** inconclusive: 11.7 µM [inhibitor, partial curve, poor fit]

**Q.** With `CCCCNC(=O)/C(=C\c1ccc([N+](=O)[O-])o1)NC(=O)c1ccccc1` as the compound, how does the Potency read?
**A.** inconclusive: 5.86 µM [inhibitor, partial curve, poor fit]

**Q.** Which Potency does the source give for `CC1CCN(S(=O)(=O)c2ccc3c(c2)CCC(=O)N3CC(=O)Nc2cccc(C#N)c2)CC1` here?
**A.** active: 11.7 µM

**Q.** Which Potency does the source give for `CC(=O)NC(CC(=O)OCC(=O)c1ccc(NC(=O)CC(C)C)cc1)c1ccccc1` (centres undefined) here?
**A.** inconclusive: 9.28 µM [inhibitor, partial curve, poor fit]

**Q.** With `CCN(CC)S(=O)(=O)c1cccc(C(=O)N/N=C2\CC(=O)CC(C)(C)C2)c1` as the compound, how does the Potency read?
**A.** inconclusive: 18.5 µM [inhibitor, single point]

**Q.** For `COc1ccccc1/C=N\Nc1cc(C)nc(-n2nc(C)cc2C)n1`, which Potency is on record?
**A.** active: 1.65 µM

**Q.** With `O=C(CCc1ccccc1)Nc1ccc(S(=O)(=O)N2CCCC2)cc1` as the compound, how does the Potency read?
**A.** inconclusive: 11.7 µM [inhibitor, single point]

**Q.** With `O=C(CCS(=O)(=O)c1ccc(Cl)cc1)Nc1nccs1` as the compound, how does the Potency read?
**A.** inconclusive: 4.65 µM [inhibitor, partial curve, poor fit]

**Q.** For `CCCCCCc1ccc(N2C[C@H](C)[C@@H](CC(=O)NCc3ccccc3)C2=O)cc1`, which Potency is on record?
**A.** inconclusive: 0.0657 µM [inhibitor, full curve, poor fit]

**Q.** With `CCOc1cc(S(=O)(=O)N(CC)CC)c(OCC)cc1-n1cnnn1` as the compound, how does the “activity change, negative = inhibition” value read?
**A.** inactive: 0.78%

**Q.** Which “activity change, negative = inhibition” value does the source give for `Cc1cc(C=O)c(C)n1-c1cccc(C(=O)O)c1` here?
**A.** inactive: 29.3%

**Q.** For `N#Cc1c(/N=C/C2C(=O)NC(=S)NC2=O)sc2c1CCCC2`, which “activity change, negative = inhibition” value is on record?
**A.** inactive: -6.79%

**Q.** With `Cc1cc(/N=C/C=C2\N(C)c3ccccc3C2(C)C)n(CCC#N)n1` as the compound, how does the Potency read?
**A.** inconclusive: 7.38 µM [inhibitor, partial curve, poor fit]

**Q.** With `COc1ccc(OC)c(-n2nnnc2SCC(=O)Nc2cc(C)ccc2OC)c1` as the compound, how does the Potency read?
**A.** inconclusive: 18.5 µM [inhibitor, single point]

**Q.** Which Potency does the source give for `CCc1ccc(NC(=O)CCCN2C(=S)NC(C)(C)CC2C)cc1` (centres undefined) here?
**A.** inconclusive: 13.1 µM [inhibitor, partial curve]

**Q.** With `COc1ccccc1NS(=O)(=O)c1ccc(C(=O)N2CCN(c3ccccc3)CC2)cc1` as the compound, how does the Potency read?
**A.** inconclusive: 13.1 µM [inhibitor, single point]

**Q.** For `CCN(CC)CCCN(C(=O)c1ccccc1C)c1nc(-c2ccc(OC)cc2)cs1`, which Potency is on record?
**A.** inconclusive: 5.22 µM [inhibitor, partial curve]

**Q.** Which Potency does the source give for `Oc1c(C(Nc2cccc(C(F)(F)F)c2)c2ccncc2)ccc2cccnc12` (centres undefined) here?
**A.** active: 1.85 µM

**Q.** Which Potency does the source give for `O=C(CSc1ccc2nnc(-c3ccccn3)n2n1)Nc1ccccc1` here?
**A.** active: 13.1 µM

**Q.** With `CCOC(=O)C1=C(COC(=O)/C=C/c2ccc(OC)cc2OC)NC(=O)NC1C` (centres undefined) as the compound, how does the Potency read?
**A.** inconclusive: 18.5 µM [inhibitor, single point]

**Q.** With `Cn1c(=O)c2c(ncn2CC(=O)Nc2ccccc2Sc2ccccc2)n(C)c1=O` as the compound, how does the “activity change, negative = inhibition” value read?
**A.** inactive: -6.26%

**Q.** For `CCc1ccc2c(CN3CCN(Cc4ccccc4)CC3)cc(=O)oc2c1`, which “activity change, negative = inhibition” value is on record?
**A.** inactive: -17.3%

**Q.** Which Potency does the source give for `O=C(CCN1CCN(S(=O)(=O)c2ccc(Br)cc2)CC1)Nc1ccccc1F` here?
**A.** inconclusive: 18.5 µM [inhibitor, single point]

**Q.** With `COc1cccc(C(=O)NN2CC(O)=C(c3nc4ccccc4s3)C2=N)c1` as the compound, how does the activity change, negative = inhibition read?
**A.** inactive: -45.7% [at 5.75 µM]

**Q.** For `CC(=O)NCCn1c(SCc2ccc(C)cc2)nc2ccccc2c1=O`, which “activity change, negative = inhibition” value is on record?
**A.** inactive: 3.41%

**Q.** With `COc1cccc(-c2ccc3ncnc(N(C)Cc4ccco4)c3c2)c1` as the compound, how does the Potency read?
**A.** inconclusive: 10.4 µM [inhibitor, partial curve] and inconclusive: 16.5 µM [inhibitor, single point]

**Q.** For `CCOc1ccc(N(CC(=O)Nc2ccc(C)cc2)S(C)(=O)=O)cc1`, which “activity change, negative = inhibition” value is on record?
**A.** inactive: 92.4%

**Q.** With `Nc1nnc(SCC(=O)Nc2cc(S(=O)(=O)N3CCOCC3)ccc2N2CCCC2)s1` as the compound, how does the Potency read?
**A.** inconclusive: 11.7 µM [inhibitor, partial curve, poor fit]

**Q.** For `Cc1ccc(CNc2cccnc2)cc1`, which “activity change, negative = inhibition” value is on record?
**A.** inactive: 4.75%

**Q.** For `Cc1ccc(C2=NN(CC(=O)NCCN(CC(C)C)CC(C)C)C(=O)CC2)cc1`, which “activity change, negative = inhibition” value is on record?
**A.** inactive: -45.7%

**Q.** For `CCC1CN(C(=O)N2CCC(C(=O)NCc3ccccc3C)CC2)c2ccccc2O1` (centres undefined), which Potency is on record?
**A.** inconclusive: 13.1 µM [inhibitor, partial curve]
